# Experimental data: ChEMBL document CHEMBL4888484, “Replenishing the malaria drug discovery pipeline: Screening and hit evaluation of the MMV Hit Generation Library 1 (HGL1) against asexual blood stage Plasmodium falciparum ,using a nano luciferase reporter read-out” (2022)
# The whole screen tested about 150,000 compounds, of which about 540 (0.36%) showed an effect of 50% or more. The list shows a part of the results.
# Tested on: Plasmodium falciparum
# Assay: Primary screen in NF54 nanoGlo assay, in single point, at 2uM, 72h; a lower Z score goes with more inhibition
# Type: functional, Erythrocyte
# Conditions: timepoint 72 hour
SMILES,% Inhibition [%],Z score
C=CCC(C(=O)N1CCC(c2cnccn2)C1)c1ccccc1 (stereo unspecified),-3,0.41
CC(C)(O)[C@H]1CCN(c2ccc3cc(Cl)ccc3n2)C1,-5,0.76
Cc1cc(C)cc(NC(=O)C2CCN(c3c(C(=O)N4CCCCC4)cnc4snc(C)c34)CC2)c1,-2,0.33
COc1ccc(CN(C(=O)CC#N)C2CCCCC2C)cc1OC (stereo unspecified),-4,0.77
Cc1[nH]c(=O)c(C#N)c(C)c1CCC(=O)N1CCO[C@@H](C)C1,1,-0.07
O=C1CC(C2CCCCN2C(=O)c2ccc(-c3nc(C4CC4)no3)cc2)CN1 (stereo unspecified),-12,1.51
CC(C)CC1NC2(CCN(C(=O)c3ccccc3)CC2)N(C(C)c2ccccc2)C1=O (stereo unspecified),-6,1.08
O=C(Cc1nc2ccccc2c(=O)[nH]1)c1c[nH]c2ccccc12,19,-2.47
Cc1cnccc1CC(=O)N[C@H](C#N)C(C)(C)C,-7,0.97
Cc1ccc([C@H](C)NS(=O)(=O)N2CCCC2)cn1,-8,1.19
CCN1C(=O)c2cccc3c(NC(=O)c4ccc(-c5nc6ccccc6s5)s4)ccc1c23,-5,0.85
COc1ccc(-n2cc(-c3ccccc3)nc2NC(=O)CN(CC(C)C)S(=O)(=O)c2ccc(Cl)cc2)cc1OC,-6,0.88
CCn1ccnc1Cn1ccnc1-c1ccc(N(C)C)nc1,10,-1.83
CCCn1cnnc1CN(C)Cc1nccn1-c1ccc(OC)cc1,-15,2.29
CCN(CC)C1=Nc2ccccc2Oc2ccc(NC(=O)c3cccc(F)c3)cc21,4,-0.64
COc1cc(OC)nc(C(=O)N2CC[C@H](Cc3nccs3)C2)n1,-6,0.95
CC1(C)Oc2cc(S(=O)(=O)NC3CCCCC3)ccc2NC1=O,33,-4.4
COC(=O)CN1C(=O)CCn2nc(-c3ccc(C)cc3)cc21,-12,1.59
CCCCN(C)C(=O)c1cn2ccnc(-c3ccccc3)c2n1,31,-3.56
Cn1ccnc1COc1c(F)cccc1F,-6,0.71
CCCC1(CCC)C(=O)N(CCC#N)C(=O)N1CCC#N,-15,2.01

SMILES,% Inhibition [%],Z score
C[C@@H](c1ccccc1)N(C)C(=O)C(=O)Nc1cnn(-c2ccncc2)c1,3,-0.42
O=C(NC1CCOCC1)NC1CCOC(C2CC2)C1 (stereo unspecified),-11,1.68
Cc1cc(NC(=O)Nc2nc3c(s2)CCCC3)[nH]n1,-28,3.27
COc1ccccc1CC(=O)NCc1cncc(-c2ccoc2)c1,19,-2.44
C[C@H](NC(=O)c1ccc2[nH]c3c(c2c1)CCCC3)C1CCN(CC(F)(F)F)CC1,-6,0.95
O=C(NCCc1ccccn1)c1cccs1,29,-3.32
CCOC(=O)[C@@](NC(=O)CC)(N1CCc2ccccc2C1)C(F)(F)F,32,-3.62
Cn1nc2c(c1NS(=O)(=O)c1cscc1C(F)F)CCC2,-2,0.29
COc1ccc2c(c1)CCc1c(C(=O)N3CCN(c4ccccc4F)CC3)n[nH]c1-2,-23,2.02
COc1cccc(Cn2c(Oc3ccc(-c4ccccc4)cc3)nc3c2c(=O)n(C)c(=O)n3C)c1,5,-0.65
COc1cccc(CCN2C(=O)CC[C@@H]3CN(C(=O)c4ccc(C(F)(F)F)cc4)CC[C@@H]32)c1,-14,2.1
O=C(Nc1ccc(F)cc1)c1nnc([C@H]2CCCN(S(=O)(=O)c3ccc(F)c(Cl)c3)C2)s1,-1,0.19
CCOC(=O)c1cc(C2CC2)nc2c1c(=O)n(CC(=O)NC1CCCCC1)c(=O)n2C,-3,0.42
CCN(Cc1nc(COC)no1)C(=O)CN1CCCCCC1=O,-8,1.68
COCC1(C(=O)N(C)[C@@H](C)c2cc3ccccc3[nH]2)CCC1,4,-0.83
COc1ccc(S(=O)(=O)N2CCN(Cc3nonc3C)CC2)cc1,-6,0.78
Cc1ccccc1C(=O)N1CCC2(CC1)OC[C@@H](C(=O)NCc1ccccn1)N2C(=O)c1cccc(F)c1,-6,0.8
O=C(NCc1cccnc1N1CCN(c2ccccn2)CC1)c1ccccn1,-11,1.62
CCCC[C@H](CC)CC(=O)Nc1nnn[nH]1,-5,0.58
CCNC(=O)C1(CNCc2c(C)nc3scc(C4CC4)n23)CCC1,-9,1.19
COCCn1ccc2cc(C(=O)N3CCc4nc[nH]c4C3)ccc21,1,-0.14

SMILES,% Inhibition [%],Z score
O=C(NC1CCN(C2CC2)CC1)N1CCC2(CCCCC2)C1,31,-3.54
Cc1cc(Cl)ccc1C(=O)NC[C@H](C)c1nncn1C,-14,1.46
Cn1ncnc1[C@@H]1CCCN1C(=O)C1CCCCC1,-11,1.59
Cc1ccc(C(=O)N2CCN(C(=O)C3CCC3)[C@@H]3CS(=O)(=O)C[C@@H]32)cc1O,3,-0.45
O=C(Cc1ccc(S(=O)(=O)N2CCOCC2)s1)N1CCCc2ccccc21,-12,1.05
CCN(CC)c1ccc(C(=O)Nn2cc(C(=O)NC3CCCCC3)c3ccccc3c2=O)cc1,-9,1.45
COc1ccc2c(c1)CCc1c(C(=O)NCCN3CCN(c4ccccc4F)CC3)n[nH]c1-2,-7,1.13
Cc1noc2nc(C3CC3)cc(C(=O)N3CCN(c4nccs4)CC3)c12,-3,0.52
Cc1ccc(-c2ccc(=O)n(Cc3noc(C(=O)NCCc4ccccc4)n3)n2)cc1,-15,1.84
COc1c(C(=O)OCC2(CC#N)CC2)c(C)nn1C,-10,1
OC1CN(c2ncc(-c3ccccc3)s2)C1,-8,1.48
CC(C)CNC(=O)N1CC[C@H](N(CCN2CCOCC2)S(C)(=O)=O)C1,-4,0.7
CN1CCC2CC[C@H](C1)N2C(=O)Nc1cccc(C#N)c1,2,-0.19
CCn1ncc(-c2cc(C(F)F)nc(N3CCC[C@H](C)C3)n2)c1C,27,-3.07
Cc1nc2c(c(C(F)(F)F)n1)C[C@@H](C(=O)Nc1cccc(CN(C)C)c1)CC2,1,-0.07
CCN(CC)Cc1cc(-c2nc(C)n[nH]2)c(C)o1,20,-2.51
Nc1ncnc(NCCc2ccccc2)n1,2,-0.24
CCCC[C@@]1(O)COC2(CN(C(=O)c3cc(C)nn3C)C2)C1,-10,1.57
CN(C)c1ccc(NC(=O)C(=O)N2CCC[C@@H]2Cn2ccnc2)cc1,-12,1.55
O[C@H]1CCCN(c2ccnc(-c3cnc4ccccc4c3)n2)C1,1,-0.18
Cc1sc2ncnc(N3CCCCCC3)c2c1C(=O)Nc1ccc(F)c(F)c1,4,-0.5

SMILES,% Inhibition [%],Z score
CC(C)(NC(=O)Nc1cccc(Cl)c1)C(=O)N1CCC(O)CC1,-5,0.6
CS(=O)(=O)N1CCC([C@H]2CCN(Cc3ccc(F)cc3F)C2)CC1,0,0.05
COc1ccc(C=C(C)CN[C@@H](C)c2cnn(C)c2)cc1,-6,0.8
CC(C)(c1nnn(CC2(O)CCCCC2)n1)S(C)(=O)=O,-3,0.61
Cc1cccc(-c2nc3nc(C)cc(N(C)Cc4ccccc4)n3n2)c1,-23,4.1
Cc1ccnc(NS(=O)(=O)c2ccc(NC(=O)Cc3cccs3)cc2)n1,-4,0.6
O=C1CC[C@@H]2CN(c3nccs3)CC[C@@H]2N1CCCn1ccnc1,-13,2.26
CC1(C)[C@@H](NS(=O)(=O)C2COC2)[C@@H]1c1ccccc1,2,-0.23
Cc1cc(-c2ccccn2)nn1CCO,4,-0.52
CCCc1nc(C)c(CN2CC[C@H](CS(C)(=O)=O)C2)o1,2,-0.42
Cc1ccoc1C(=O)N1CCC(Oc2ccc(F)cc2)(C(=O)O)CC1,-17,2.83
CC(C)CN(Cc1ccccc1OS(=O)(=O)c1ccc(F)cc1)C(=O)C1CCC1,-9,0.9
CCOC(=O)C1CCCN(C2CCN(C(=O)CN3Cc4ccc(OC)cc4OC(C)C3)CC2)C1 (stereo unspecified),8,-1.04
Cc1nc[nH]c1CN1C[C@H]2CC[C@@H](C1)N(Cc1ccc3c(c1)OCCO3)C2,-1,0.11
O=C(Nc1cccc(-c2nnco2)c1)N[C@H]1CCS(=O)(=O)c2ccc(Cl)cc21,-8,1.41
CC(NCC1CCCS1(=O)=O)c1cc2cnccc2o1 (stereo unspecified),-13,2
O=C(CCc1c(F)cccc1Cl)NC1CCC2OCCOC2C1 (stereo unspecified),-3,0.66
Cc1cc(C)cc(-c2nc3cc(C)ccn3c2NC(=O)C2CCCC2)c1,-10,1.67
O=S(=O)(N1CCOCC1)N1CC[C@H](Oc2ncc(Cl)cn2)C1,3,-0.48
Cn1nccc1[C@H](CO)Nc1ncnc2ccsc12,0,0
